Laboratory results taken from article PMC4336329 (PLoS ONE, 2015).
The whole screen tested about 310,000 compounds, of which about 2,200 (0.71%) showed an effect of 50% or more. Effects have a minus sign here. The list shows a part of the results.

Target: human ether-à-go-go-related gene (hERG) potassium channel (human, UniProt Q12809)
Experiment: primary screen, population patch clamp on CHO cells stably expressing hERG

Sequence of human ether-à-go-go-related gene (hERG) potassium channel (Q12809 whole entry, looked up): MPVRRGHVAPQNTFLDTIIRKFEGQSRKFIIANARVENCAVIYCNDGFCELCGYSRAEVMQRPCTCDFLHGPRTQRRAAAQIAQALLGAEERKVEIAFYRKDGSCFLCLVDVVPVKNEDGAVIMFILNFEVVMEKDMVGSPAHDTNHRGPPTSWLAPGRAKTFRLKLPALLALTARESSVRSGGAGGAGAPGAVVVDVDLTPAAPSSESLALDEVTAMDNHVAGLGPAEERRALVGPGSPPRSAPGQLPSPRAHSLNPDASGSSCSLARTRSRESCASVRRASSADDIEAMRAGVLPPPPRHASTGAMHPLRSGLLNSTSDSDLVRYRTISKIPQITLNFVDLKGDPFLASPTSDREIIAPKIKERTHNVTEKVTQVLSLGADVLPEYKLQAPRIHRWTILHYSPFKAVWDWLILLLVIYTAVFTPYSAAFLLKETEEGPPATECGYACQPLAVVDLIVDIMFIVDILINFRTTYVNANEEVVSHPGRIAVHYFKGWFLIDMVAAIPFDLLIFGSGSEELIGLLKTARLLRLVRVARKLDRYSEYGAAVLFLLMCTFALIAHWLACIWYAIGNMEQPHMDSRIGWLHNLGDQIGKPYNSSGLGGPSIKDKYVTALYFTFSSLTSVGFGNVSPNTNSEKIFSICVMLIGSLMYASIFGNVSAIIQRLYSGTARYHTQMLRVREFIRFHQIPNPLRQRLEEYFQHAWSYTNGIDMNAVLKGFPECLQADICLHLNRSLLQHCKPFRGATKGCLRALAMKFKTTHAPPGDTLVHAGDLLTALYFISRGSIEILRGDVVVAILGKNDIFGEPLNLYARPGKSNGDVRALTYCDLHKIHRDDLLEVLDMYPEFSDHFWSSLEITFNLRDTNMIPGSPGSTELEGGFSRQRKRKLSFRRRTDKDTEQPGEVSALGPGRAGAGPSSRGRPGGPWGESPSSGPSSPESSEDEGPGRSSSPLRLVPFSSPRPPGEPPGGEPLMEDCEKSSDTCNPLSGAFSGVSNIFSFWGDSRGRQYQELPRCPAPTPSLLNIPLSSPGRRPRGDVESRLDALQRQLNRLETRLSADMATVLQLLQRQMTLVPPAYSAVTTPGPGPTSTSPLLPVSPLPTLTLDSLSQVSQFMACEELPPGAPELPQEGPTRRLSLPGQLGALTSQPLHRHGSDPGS

Row | Compound | hERG current change (%, negative = inhibition) at 1uM [%]
1 | COc1ccccc1OCCCCN1CCC(C)CC1 | 4.82
2 | Cc1cc(C)c(OCCCn2ccnc2)c(C)c1 | 14.4
3 | CCN(CC)S(=O)(=O)c1ccc2c(c1)CC(C(=O)N1CCCC1)N2C(C)=O (centres unmarked) | 10.8
4 | COc1ccc(N=Nc2ccc(O)c(P(=O)(c3ccccc3)c3ccccc3)c2)cc1 | 14.2
5 | O=C(NCCC1=CCCCC1)C1CCN(Cc2cnn(-c3ccccc3)c2-n2cccc2)CC1 | -14.8
6 | CCC1CCC(NC2CCCCNC2=O)CC1 (centres unmarked) | 7.46
7 | O=C(c1ccncc1)c1nccn1-c1ccccn1 | 11.9
8 | CCOC(=O)C1=C(C)Nc2ncnn2C1/C=C/c1ccccc1 (centres unmarked) | 3.32
9 | O=C1/C(=C/c2c[nH]c3ccccc23)CCC/C1=C\c1c[nH]c2ccccc12 | -4.17
10 | COc1ccc(Cl)c(S(=O)(=O)N2CCCC2)c1 | 3
11 | O=C(C1CCCO1)N1CCN(S(=O)(=O)c2ccc(F)cc2)CC1 (centres unmarked) | 20.7
12 | CCCCOc1ccccc1C(=O)NCC(=O)O.[Li+] | 2.05
13 | COc1ccc(NC(=O)CC(C)CC(=O)NCc2ccccc2)c(OC)c1 (centres unmarked) | 7.6
14 | CCOc1ccc(S(=O)(=O)N2CCC(C(=O)N3CCN(c4ccccc4F)CC3)CC2)cc1C | -1.32
15 | Cc1ccc(NC2=C(C(=O)c3ccccc3)N(C)S(=O)(=O)c3ccccc32)cc1 | 4.64
16 | O=C(O)c1cccnc1Sc1ccc(Cl)cc1 | 2.23
17 | CCCCNS(=O)(=O)c1ccc2nc(-c3cccnc3)cc(C(=O)NCCOC)c2c1 | 6.27
18 | CCCOC(=O)Nc1ccccc1C(N)=O | -0.606
19 | COc1cccc(C(C(=O)NC2CCCCC2)N(C(=O)c2cccs2)c2ccc3c(c2)OCO3)c1 (centres unmarked) | 6.25
20 | CC1(C)OC(=O)C(=CNC(=O)c2c(F)cccc2F)C(=O)O1 | 11.8

Row | Compound | hERG current change (%, negative = inhibition) at 1uM [%]
21 | COc1cccc(N(C(=O)c2ccco2)C(C(=O)NC2CCCC2)c2ccc(N3CCOCC3)cc2)c1 (centres unmarked) | 6.24
22 | COc1ccc(N2C(=O)CCC(C(=O)N(C)C3CCCCC3)C2c2ccc(OC)c(OC)c2)cc1 (centres unmarked) | 9.16
23 | Cc1ccccc1OCCC(=O)OCC(=O)NC1CCCC1 | 0.941
24 | Cc1ccc2c(c1)N(S(=O)(=O)c1cc(-c3onc(C)c3C)ccc1C)CCO2 | 15.6
25 | CCCOc1ccccc1Cn1c(=O)oc2ccccc21 | 10.2
26 | COCCSc1nnc(NC(=O)Cc2ccccc2OC)s1 | -4.38
27 | CC(C)CNc1nc(Oc2ccc(=O)n(C)n2)nc(N2CCOCC2)n1 | 6.14
28 | C=CCNC(=O)C12CCC(C)(C(=O)[C@H]1Br)C2(C)C (some centres unmarked) | 5.97
29 | Cc1cc(NC(=O)NC2CC(=O)N(c3ccc4c(c3)OCCO4)C2)no1 (centres unmarked) | 11.3
30 | Cc1ccc(CCNS(=O)(=O)c2ccc3c(c2)N(C)CCO3)cc1 | 14.8
31 | Cc1cc(NC(=O)CSc2nc3ccccc3[nH]2)n(-c2ccccc2)n1 | 12.7
32 | O=C(NCc1ccccc1)N1CCCC1 | 13.3
33 | C#CCN1C(=O)S/C(=C/c2cc(C)n(CC)c2C)C1=O | 10.4
34 | CCOc1cc(C)nc(N2CCN(C3CCCCC3)CC2)n1 | -48
35 | COc1ccc(-n2c(=S)[nH]c3cc(C(=O)Nc4ccccc4OC)ccc3c2=O)c(OC)c1 | 23.7
36 | CC(C)=CCC(C)(C)/C=N/NC(N)=O | 10.2
37 | CCOc1c(OC(C)=O)ccc(/C=C2\N=C(SCC)SC2=O)c1[N+](=O)[O-] | 16.1
38 | O=C(CSc1nnc(-c2ccc(O)cc2)o1)NNC(=O)c1ccncc1 | 13.6
39 | O=C(NCC(=O)N(CCN1CCOCC1)C(C(=O)NC1CCCC1)c1cccnc1)c1cccs1 (centres unmarked) | 9.12
40 | O=c1nc(-c2ccccc2)c2cc(SC(F)F)ccc2[nH]1 | 6.79

Row | Compound | hERG current change (%, negative = inhibition) at 1uM [%]
41 | Cc1cc(C)n(C(N)=NC(=O)c2ccc([N+](=O)[O-])cc2)n1 | 13.8
42 | O=C1Nc2ccccc2C(O)(C(=O)N2CCCCC2)N1c1ccccc1 (centres unmarked) | 8.17
43 | Cc1ccc(-n2c(=O)cc(N3CCCCCC3)[nH]c2=O)cc1 | 8.22
44 | O=C(c1ccc(N2CCNCC2)cc1)c1cccnc1 | 11.4
45 | CC(=O)N1CCN(CC(=O)c2ccc(Br)cc2)CC1.Cl | 7.75
46 | Cc1cccc(NC(=O)CNC(=O)COc2ccc(-c3ccc(C#N)cc3)cc2)c1C | 8.38
47 | CC1CCCCC1NS(=O)(=O)c1ccc(-n2cnnn2)cc1 (centres unmarked) | 7.31
48 | COc1ccccc1C1CCN(C(=O)c2ccco2)CC1 | 12.3
49 | CC(OC(=O)C1CCCO1)C(=O)NC1CCCC1 (centres unmarked) | 2.27
50 | Cc1cc(=O)n2c(C(=O)Nc3ccc(C(=O)OC(C)C)cc3)c(C(=O)Nc3ccccc3)sc2n1 | 10.7
51 | O=C1CCC([N+](=O)[O-])C(c2ccccc2F)N1 (centres unmarked) | 12.5
52 | CCOc1ccc(C(C(=O)NCC2CCCO2)N(C(=O)c2snc(C(N)=O)c2N)c2ccc(F)cc2)cc1 (centres unmarked) | 7.1
53 | Cc1cccc(-n2ncc3c(NNC(=O)c4ccco4)ncnc32)c1 | 14.8
54 | CC(=O)N1N=C(c2ccc3nccnc3c2)CC1c1ccccc1 (centres unmarked) | -7.41
55 | CCSc1nc2c(c(=O)[nH]c(=O)n2C)n1C | 13.3
56 | O=C(NC(=S)N(Cc1ccccc1)c1ccccn1)C1CCCCC1 | -0.314
57 | O=C(Nc1cccnc1)c1cccc(S(=O)(=O)N2CCOCC2)c1 | 11
58 | CC(=O)c1cccc(NC(=O)c2ccccc2-c2ccccc2C(=O)O)c1 | 17.1
59 | Cn1nnc2cc(C(=O)N3CCN(c4ccccc4)CC3)ccc21 | 5.2
